# Experimental data taken from the supplement of paper PMC8728848.
# Some of the results follow.
# Tests used:
# Assay in all cases: glycan array binding signal (z-score within array); higher = stronger binding
# Details in all cases: glycan notation: IUPAC condensed, linker removed
# [1] = target: Fuc(a1-2)[Gal(a1-3)]Gal(b1-4)GlcNAc(b1-2)Man(a1-3)[Fuc(a1-2)[Gal(a1-3)]Gal(b1-4)GlcNAc(b1-2)Man(a1-6)]Man(b1-4)GlcNAc(b1-4)[Fuc(a1-6)]GlcNAc
# Outline: (§1)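 The binding signal is a Z-score computed within each array and averaged over linkers. Arrays of the same protein sequence at different concentrations or buffers were also averaged together. Data originate from 3228 arrays in the Consortium for Functional Glycomics database, kept only where the protein sequence was available.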
# [2] = target: Fuc(a1-2)[Gal(a1-3)]Gal(b1-4)GlcNAc(b1-3)GalNAc
# Outline: as §1
# [3] = target: Fuc(a1-2)[Gal(a1-3)]Gal(b1-4)GlcNAc(b1-6)GalNAc
# Outline: as §1
# [4] = target: Fuc(a1-2)[Gal(a1-3)]Gal(b1-4)[Fuc(a1-3)]Glc
# Outline: as §1
# [5] = target: Fuc(a1-2)[Gal(a1-3)]Gal(b1-4)[Fuc(a1-3)]GlcNAc
# Outline: as §1
# [6] = target: Fuc(a1-2)[Gal(a1-3)]Gal(b1-4)[Fuc(a1-3)]GlcNAc(b1-3)GalNAc
# Outline: as §1
# [7] = target: Fuc(a1-2)[Gal(a1-4)]Gal(b1-4)GlcNAc
# Outline: as §1
# [8] = target: Fuc(a1-2)[GalNAc(a1-3)]Gal
# Outline: as §1
# [9] = target: Fuc(a1-2)[GalNAc(a1-3)]Gal(b1-3)GalNAc(a1-3)[Fuc(a1-2)]Gal(b1-4)GlcNAc
# Outline: as §1
# [10] = target: Fuc(a1-2)[GalNAc(a1-3)]Gal(b1-3)GalNAc(b1-3)Gal(a1-4)Gal(b1-4)Glc
# Outline: as §1
# [11] = target: Fuc(a1-2)[GalNAc(a1-3)]Gal(b1-3)GlcNAc
# Outline: as §1
# [12] = target: Fuc(a1-2)[GalNAc(a1-3)]Gal(b1-3)GlcNAc(b1-2)Man(a1-3)[Fuc(a1-2)[GalNAc(a1-3)]Gal(b1-3)GlcNAc(b1-2)Man(a1-6)]Man(b1-4)GlcNAc(b1-4)GlcNAc
# Outline: as §1
# [13] = target: Fuc(a1-2)[GalNAc(a1-3)]Gal(b1-3)GlcNAc(b1-2)Man(a1-3)[Fuc(a1-2)[GalNAc(a1-3)]Gal(b1-3)GlcNAc(b1-2)Man(a1-6)]Man(b1-4)GlcNAc(b1-4)[Fuc(a1-6)]GlcNAc
# Outline: as §1
# [14] = target: Fuc(a1-2)[GalNAc(a1-3)]Gal(b1-3)GlcNAc(b1-3)GalNAc
# Outline: as §1
# [15] = target: Fuc(a1-2)[GalNAc(a1-3)]Gal(b1-3)GlcNAc(b1-6)GalNAc
# Outline: as §1
# [16] = target: Fuc(a1-2)[GalNAc(a1-3)]Gal(b1-4)Glc
# Outline: as §1
# [17] = target: Fuc(a1-2)[GalNAc(a1-3)]Gal(b1-4)GlcNAc
# Outline: as §1
# [18] = target: Fuc(a1-2)[GalNAc(a1-3)]Gal(b1-4)GlcNAc(b1-2)Man
# Outline: as §1
# [19] = target: Fuc(a1-2)[GalNAc(a1-3)]Gal(b1-4)GlcNAc(b1-2)Man(a1-3)[Fuc(a1-2)[GalNAc(a1-3)]Gal(b1-4)GlcNAc(b1-2)Man(a1-6)]Man(b1-4)GlcNAc(b1-4)GlcNAc
# Outline: as §1
# [20] = target: Fuc(a1-2)[GalNAc(a1-3)]Gal(b1-4)GlcNAc(b1-2)Man(a1-3)[Fuc(a1-2)[GalNAc(a1-3)]Gal(b1-4)GlcNAc(b1-2)Man(a1-6)]Man(b1-4)GlcNAc(b1-4)[Fuc(a1-6)]GlcNAc
# Outline: as §1
# [21] = target: Fuc(a1-2)[GalNAc(a1-3)]Gal(b1-4)GlcNAc(b1-3)Gal(b1-4)GlcNAc
# Outline: as §1
# [22] = target: Fuc(a1-2)[GalNAc(a1-3)]Gal(b1-4)GlcNAc(b1-3)Gal(b1-4)GlcNAc(b1-3)Gal(b1-4)GlcNAc
# Outline: as §1
# [23] = target: Fuc(a1-2)[GalNAc(a1-3)]Gal(b1-4)GlcNAc(b1-3)GalNAc
# Outline: as §1
# [24] = target: Fuc(a1-2)[GalNAc(a1-3)]Gal(b1-4)GlcNAc(b1-3)[Fuc(a1-2)[GalNAc(a1-3)]Gal(b1-4)GlcNAc(b1-6)]GalNAc
# Outline: as §1
# [25] = target: Fuc(a1-2)[GalNAc(a1-3)]Gal(b1-4)GlcNAc(b1-6)GalNAc
# Outline: as §1
# [26] = target: Fuc(a1-2)[GalNAc(a1-3)]Gal(b1-4)[Fuc(a1-3)]GlcNAc
# Outline: as §1
# [27] = target: Fuc(a1-2)[GalNAc(a1-3)]Gal(b1-4)[Fuc(a1-3)]GlcNAc(b1-3)GalNAc
# Outline: as §1
# [28] = target: Fuc(a1-2)[GalNAc(a1-4)]Gal(b1-4)GlcNAc
# Outline: as §1
# [29] = target: Fuc(a1-2)[GalNAc(b1-3)]Gal
# Outline: as §1
# Fuc(a1-3)GlcNAc = target: Fuc(a1-3)GlcNAc
# Outline: as §1
# [30] = target: Fuc(a1-3)[Gal(b1-4)]Glc6S
# Outline: as §1
# [31] = target: Fuc(a1-3)[Gal(b1-4)]GlcNAc
# Outline: as §1
# [32] = target: Fuc(a1-3)[Gal(b1-4)]GlcNAc(b1-2)Man
# Outline: as §1
# [33] = target: Fuc(a1-3)[Gal(b1-4)]GlcNAc(b1-2)Man(a1-3)[Fuc(a1-3)[Gal(b1-4)]GlcNAc(b1-2)Man(a1-6)]Man(b1-4)GlcNAc(b1-4)GlcNAc
# Outline: as §1
# [34] = target: Fuc(a1-3)[Gal(b1-4)]GlcNAc(b1-2)Man(a1-3)[Fuc(a1-3)[Gal(b1-4)]GlcNAc(b1-2)Man(a1-6)]Man(b1-4)GlcNAc(b1-4)[Fuc(a1-6)]GlcNAc
# Outline: as §1
# [35] = target: Fuc(a1-3)[Gal(b1-4)]GlcNAc(b1-3)Gal(b1-3)[Fuc(a1-4)]GlcNAc
# Outline: as §1
# [36] = target: Fuc(a1-3)[Gal(b1-4)]GlcNAc(b1-3)GalNAc
# Outline: as §1
# [37] = target: Fuc(a1-3)[Gal(b1-4)]GlcNAc(b1-4)Gal(b1-4)[Fuc(a1-3)]GlcNAc
# Outline: as §1
# [38] = target: Fuc(a1-3)[Gal(b1-4)]GlcNAc(b1-4)Gal(b1-4)[Fuc(a1-3)]GlcNAc(b1-4)Gal(b1-4)[Fuc(a1-3)]GlcNAc
# Outline: as §1
# [39] = target: Fuc(a1-3)[Gal(b1-4)]GlcNAc(b1-6)GalNAc
# Outline: as §1
# [40] = target: Fuc(a1-3)[Gal(b1-4)]GlcNAc(b1-6)[Gal(b1-3)GlcNAc(b1-3)]Gal(b1-4)Glc
# Outline: as §1
# [41] = target: Fuc(a1-3)[Gal(b1-4)]GlcNAc6S
# Outline: as §1
# [42] = target: Fuc(a1-3)[Gal3S(b1-4)]Glc
# Outline: as §1
# [43] = target: Fuc(a1-3)[Gal3S(b1-4)]GlcNAc
# Outline: as §1
# [44] = target: Fuc(a1-3)[Gal3S(b1-4)]GlcNAc6S
# Outline: as §1
# [45] = target: Fuc(a1-3)[GalNAc(b1-4)]GlcNAc
# Outline: as §1
# [46] = target: Fuc(a1-3)[GalNAc(b1-4)]GlcNAc6S
# Outline: as §1
# Fuc(a1-4)GlcNAc = target: Fuc(a1-4)GlcNAc
# Outline: as §1
# Fuc(b1-3)GlcNAc = target: Fuc(b1-3)GlcNAc
# Outline: as §1
# Gal(a1-2)Gal = target: Gal(a1-2)Gal
# Outline: as §1
# Gal(a1-3)Gal = target: Gal(a1-3)Gal
# Outline: as §1
# Gal(a1-3)Gal(b1-3)GlcNAc = target: Gal(a1-3)Gal(b1-3)GlcNAc
# Outline: as §1
# [47] = target: Gal(a1-3)Gal(b1-3)GlcNAc(b1-2)Man
# Outline: as §1
# [48] = target: Gal(a1-3)Gal(b1-3)GlcNAc(b1-2)Man(a1-3)[Gal(a1-3)Gal(b1-3)GlcNAc(b1-2)Man(a1-6)]Man(b1-4)GlcNAc(b1-4)GlcNAc
# Outline: as §1
# [49] = target: Gal(a1-3)Gal(b1-3)GlcNAc(b1-3)GalNAc
# Outline: as §1
# [50] = target: Gal(a1-3)Gal(b1-3)GlcNAc(b1-6)GalNAc
# Outline: as §1
# [51] = target: Gal(a1-3)Gal(b1-3)[Fuc(a1-4)]GlcNAc(b1-2)Man(a1-3)[Gal(a1-3)Gal(b1-3)[Fuc(a1-4)]GlcNAc(b1-2)Man(a1-6)]Man(b1-4)GlcNAc(b1-4)GlcNAc
# Outline: as §1
# Gal(a1-3)Gal(b1-4)Glc = target: Gal(a1-3)Gal(b1-4)Glc
# Outline: as §1
# Gal(a1-3)Gal(b1-4)GlcNAc = target: Gal(a1-3)Gal(b1-4)GlcNAc
# Outline: as §1
# [52] = target: Gal(a1-3)Gal(b1-4)GlcNAc(b1-2)Man
# Outline: as §1
binder,measurement,setting,value
Fm1D (Escherichia coli) (protein) FSCNVDGGSSIGAGTTSVYVNLDPVIQPGQNLVVDLSQHISCWNDYGGWYDTDHINLVQGSAFAGSLQSYKGSLYWNNVTYPFPLTTNTNVLDIGDKTPMPLPLKLYITPVGAAGGVVIKAGEVIARIHMYKIATLGSGNPRNFTWNIISNNSVVMPTHHHHHH,glycan array binding signal (z-score),[1],-0.143
same,glycan array binding signal (z-score),[2],-0.143
same,glycan array binding signal (z-score),[3],-0.145
same,glycan array binding signal (z-score),[4],-0.143
same,glycan array binding signal (z-score),[5],-0.14
same,glycan array binding signal (z-score),[6],-0.145
same,glycan array binding signal (z-score),[7],-0.144
same,glycan array binding signal (z-score),[8],-0.126
same,glycan array binding signal (z-score),[9],0.047
same,glycan array binding signal (z-score),[10],0.02
same,glycan array binding signal (z-score),[11],-0.146
same,glycan array binding signal (z-score),[12],-0.144
same,glycan array binding signal (z-score),[13],-0.145
same,glycan array binding signal (z-score),[14],-0.144
same,glycan array binding signal (z-score),[15],-0.126
same,glycan array binding signal (z-score),[16],-0.142
same,glycan array binding signal (z-score),[17],-0.147
same,glycan array binding signal (z-score),[18],-0.143
same,glycan array binding signal (z-score),[19],-0.142
same,glycan array binding signal (z-score),[20],-0.149
same,glycan array binding signal (z-score),[21],-0.143
same,glycan array binding signal (z-score),[22],-0.142
same,glycan array binding signal (z-score),[23],-0.146
same,glycan array binding signal (z-score),[24],-0.142
same,glycan array binding signal (z-score),[25],-0.145
same,glycan array binding signal (z-score),[26],-0.138
same,glycan array binding signal (z-score),[27],-0.13
same,glycan array binding signal (z-score),[28],-0.136
same,glycan array binding signal (z-score),[29],-0.145
same,glycan array binding signal (z-score),Fuc(a1-3)GlcNAc,-0.14
same,glycan array binding signal (z-score),[30],-0.144
same,glycan array binding signal (z-score),[31],-0.142
same,glycan array binding signal (z-score),[32],-0.141
same,glycan array binding signal (z-score),[33],-0.14
same,glycan array binding signal (z-score),[34],-0.139
same,glycan array binding signal (z-score),[35],-0.143
same,glycan array binding signal (z-score),[36],-0.139
same,glycan array binding signal (z-score),[37],-0.138
same,glycan array binding signal (z-score),[38],-0.113
same,glycan array binding signal (z-score),[39],-0.139
same,glycan array binding signal (z-score),[40],-0.139
same,glycan array binding signal (z-score),[41],-0.148
same,glycan array binding signal (z-score),[42],-0.141
same,glycan array binding signal (z-score),[43],-0.141
same,glycan array binding signal (z-score),[44],-0.143
same,glycan array binding signal (z-score),[45],-0.145
same,glycan array binding signal (z-score),[46],-0.149
same,glycan array binding signal (z-score),Fuc(a1-4)GlcNAc,-0.148
same,glycan array binding signal (z-score),Fuc(b1-3)GlcNAc,-0.145
same,glycan array binding signal (z-score),Gal(a1-2)Gal,-0.139
same,glycan array binding signal (z-score),Gal(a1-3)Gal,-0.142
same,glycan array binding signal (z-score),Gal(a1-3)Gal(b1-3)GlcNAc,-0.138
same,glycan array binding signal (z-score),[47],-0.144
same,glycan array binding signal (z-score),[48],-0.131
same,glycan array binding signal (z-score),[49],-0.139
same,glycan array binding signal (z-score),[50],-0.122
same,glycan array binding signal (z-score),[51],-0.128
same,glycan array binding signal (z-score),Gal(a1-3)Gal(b1-4)Glc,-0.145
same,glycan array binding signal (z-score),Gal(a1-3)Gal(b1-4)GlcNAc,-0.137
same,glycan array binding signal (z-score),[52],-0.143
